In PubChem BioAssay (NCI):
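Method: 48-hour compound exposure of cells in 96-well plates, five concentrations, linear interpolation of endpoints. GI50 marks 50% less growth. TGI denotes the concentration required for complete inhibition of growth.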

tested on: NCI-H322M lung; assay: NCI anticancer screen, dose series, 48 h

| Compound | TGI | GI50 |
| --- | --- | --- |
| O=C(CSc1nc(=O)[nH]c2nc[nH]c12)Nc1ccccc1 | > 100 µM | – |
| CCCN(CCC)c1ccc(CO)c(C)c1 | > 100 µM | > 100 µM |
| CCC(Sc1nnc2c3ccccc3n(CC)c2n1)C(=O)Nc1ccccc1OC (centres undefined) | > 100 µM | 3.18 µM |
| O=C(c1cc(Cl)cc(Cl)c1)N(C(=S)OC12CC3CC(CC(C3)C1)C2)c1ccccc1 | > 100 µM | – |
| CCOC(=O)CC1(O)C=CC(=O)C=C1 | 6.31 µg/mL | 3.23 µg/mL |
| O=C(COc1cccc(/C=C2\COc3ccccc3C2=O)c1)Nc1nccs1 | 17.5 µM | 5.02 µM |
| COc1cnc2c(c1)C(=O)c1c-2n(CCCn2ccnc2)c(=O)c2cc(Cl)ccc12 | > 100 µM | 0.124 µM |
| O=P(O)(O)C(O)/C=C/c1ccccc1 (centres undefined) | > 100 µM | – |
| COC(=O)C(CCC1C=CCC1)N=Cc1ccccc1 (centres undefined) | > 100 µM | – |
| Cc1cc2[nH]c3c(C#N)c(-c4ccccc4)c(N=Nc4cccc(C(F)(F)F)c4)c(=O)n3c2cc1C | > 100 µM | – |
| COc1cc(OC)c2c(c1OC)OCC(Cc1ccc(O)cc1)C2=O (centres undefined) | > 25 µM | – |
| CCSC1=N/C(=C\c2ccccc2O)C(Nc2ccc(C)cc2)=N1 | > 100 µM | – |
| CCN(CC)c1ccc2c(c1)Oc1nc(N)c(C#N)c(N)c1C2Sc1ccc(SC)cc1 (centres undefined) | 3.14 µM | 1.72 µM |
| COC(OC)c1cccc2c1C1(O)CCC3(CC21)OCCCCO3 (centres undefined) | > 100 µM | – |
| Nc1ccc(Nc2nc(F)nc(-c3c4ccccc4c4n3CCS4)n2)cc1 | > 100 µM | – |
| O=C1OCC(C#Cc2ccccc2)=C1Cl | 29.2 µM | 11.1 µM |

| Compound | TGI | GI50 |
| --- | --- | --- |
| Cc1c(C(=O)/C=C/c2ccc(Cl)cc2)[n+](=O)c2ccccc2n1[O-] | 27.6 µM | – |
| CC[N+]1(C)CCC(O)(c2ccc(Cl)cc2)C(C(=O)c2ccc(Cl)cc2)C1 (centres undefined) | 57.2 µM | – |
| OCCN(CCO)c1ccc2c(C(F)(F)F)cc(C(F)(F)F)nc2n1 | > 100 µM | – |
| COc1ccc(C(c2ccc(C(C)C)cc(=O)c2O)c2c(O)cc3oc(-c4ccccc4)cc(=O)c3c2O)cc1 (centres undefined) | 89.7 µM | – |
| O=c1cc(Cl)nc[nH]1 | > 100 µM | – |
| COc1ccc2c(c1)CC[C@@H]1[C@@H]2CC[C@@]2(C)[C@H]1CC1(CCCCC1)[C@@H]2O | 32.1 µM | 17.5 µM |
| O=C(CCC(=O)Nc1ccc(Cl)cc1)CC(=O)c1ccc(F)cc1 | > 100 µM | – |
| CC(=O)O[C@H]1C[C@]2(C)C(CCC3O[C@@]32C)[C@@]2(CC(c3ccoc3)OC2O)[C@@H]1C (some centres undefined) | > 100 µM | – |
| CS(=O)(=O)CCNCc1ccc(-c2ccc3ncnc(Nc4ccc(OCc5cccc(C(F)(F)F)c5)cc4)c3c2)o1 | 24.4 µM | 8.22 µM |
| CC(=O)Nc1ccc(CNc2cc(=O)[nH]c(=O)[nH]2)cc1 | > 100 µM | – |
| O=C1/C(=C/c2ccccc2Cl)N=C(c2ccccc2)N1Cc1ccco1 | > 100 µM | 11.6 µM |
| Nc1ccc2c(c1)C(=O)c1c(F)cccc1-2 | > 100 µM | – |
| CC1(C)N=C(N)N=C(N)N1c1ccc(F)c(C(F)(F)F)c1 | > 100 µM | 1.01 µM |
| Brc1ccc([I+]c2ccc(Br)cc2)cc1 | 13.8 µM | 2.92 µM |
| CC(=O)N1CC2Nc3ccccc3C2CC1CO (centres undefined) | > 100 µM | – |
| O=C1CCCc2c1c1c(n2Cc2ccccc2)-c2ccccc2C1=O | 30.5 µM | – |
